# Out of some 420,000 compounds screened, about 64,000 (15%) were called active. This list was built around the results that the source calls inconclusive (neither active nor inactive); the mix of calls is not that of the screen. The call rests on the fitted dose curve; in most records, active means well fitted inhibition curve with a large enough effect; inconclusive means small, poorly fitted or top-dose-only effect; inactive means flat fitted curve, though single readings scatter. No potency is given beside an inconclusive call; the fits are too rough.
# Test: qHTS for Inhibitors of human tyrosyl-DNA phosphodiesterase 1 (TDP1): qHTS in cells in absence of CPT; further: nearly all actives have a fitted effect of over 55% in size
# Conditions: DT40 Tdp1-/- hTDP1 cells, no CPT, ATP luminescence, 48 h; activity change, negative = growth inhibition: at 46.2 µM (top of the series) unless noted
# Outline: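 Chicken DT40 Tdp1-/- cells stably complemented with human TDP1 were seeded at 400 cells/well with DMSO in place of 20 nM camptothecin. After compound pinning, cells grew at least 48 hr at 37 °C; viability read by CellTiter-Glo luminescence.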
# On the % scale 0 is the no-effect control and ±100 the full control effect; potency means the concentration at half of the fitted maximal effect; tags describe the fitted curve by direction and shape.
Compound,Potency,"activity change, negative = growth inhibition"
CC(=O)N1CCN(c2ncnc3sc(-c4ccccc4)cc23)CC1,"inconclusive [inhibitor, partial curve]",
CC(C)C(=O)Nc1ccc(NC(=O)c2cccc(F)c2)cn1,,inconclusive: -32.7% [inhibitor]
COc1ccc(C(=O)Nc2cccc(-c3cc4ccccc4oc3=O)c2)cc1[N+](=O)[O-],"inconclusive [inhibitor, full curve, poor fit]",
CCc1ccc(OCC(=O)O/N=C(\N)Cc2ccc([N+](=O)[O-])cc2)cc1,"inconclusive [inhibitor, partial curve, poor fit]",
O=C(CSc1nnc(CNC(=O)c2ccc(F)cc2)o1)NCCc1ccccc1,inactive,
COc1ccc(CNC(=O)CN2C(=O)CC(c3ccc(C)c(C)c3)=Nc3ccccc32)cc1,"inconclusive [inhibitor, partial curve]",
CC1=C(C(=O)N(C(C)C)C(C)C)CC(CC(=O)NCc2cccc3ccccc23)C(=O)N1Cc1ccccc1 (stereo not drawn),active: 14.6 µM,
CCN(CC)S(=O)(=O)c1cc(NC(=O)C(C)N2CCN(c3ccccn3)CC2)ccc1C (stereo not drawn),active: 14.6 µM,
Clc1nc(-c2cccnc2)nc2scc(-c3ccccc3)c12,"inconclusive [inhibitor, single point]",
Cc1ccn2c(C(=O)N/N=C\c3ccc4c(c3)OCO4)c(C)nc2c1,"inconclusive [inhibitor, single point]",
CCOC(=O)C1(Cc2ccccc2Cl)CCN(C(=O)c2cnccn2)CC1,"inconclusive [inhibitor, partial curve]",
Cc1cc(C)c(-c2n[nH]c3c2C(c2ccccc2F)N(Cc2ccco2)C3=O)c(O)c1 (stereo not drawn),active: 20.6 µM,
COCc1ccc(CN2CCCC(CO)(Cc3cccc(Cl)c3)C2)o1 (stereo not drawn),"inconclusive [inhibitor, single point]",
CCc1nc(SCC(=O)Nc2nnc(C(C)C)s2)n[nH]1,inactive,
O=C(O)c1ccccc1Nc1cc(Cl)ccc1C(=O)O,inactive,
FC(F)(F)c1cccc(N2CCN(C3CC4CCC3C4)CC2)c1 (stereo not drawn),"inconclusive [inhibitor, single point]",
Cc1ccc(S(=O)(=O)N2CCCN(C(=O)c3cc4ccccc4[nH]3)CC2)cc1,"inconclusive [inhibitor, single point]",
Cc1ccc(OCC(=O)NNC(=O)C2CCN(c3ncnc4sc(C)c(C)c34)CC2)cc1,"inconclusive [inhibitor, single point]",
O=c1[nH]c2cc(Br)ccc2n2cccc12,"inconclusive [inhibitor, partial curve]",
COc1ccc(-c2csc(NC3=NCCCCC3)n2)cc1,inactive,
CCc1cc(C(=O)N=Nc2c(O)[nH]c3ccc([N+](=O)[O-])cc23)c2ccccc2n1,"inconclusive [inhibitor, single point]",
COc1ccc(C(=O)Nc2ccc(S(=O)(=O)Nc3cnc4ccccc4n3)cc2)cc1,"inconclusive [inhibitor, single point]",
CCOc1ccc(/C=N/NC(=O)c2cc3c(OC)cc(OC)cc3[nH]2)cc1OC,active: 16.4 µM,

Compound,Potency,"activity change, negative = growth inhibition"
Cc1ccc(S(=O)(=O)N2CCN(C3CC(=O)N(c4ccc(F)cc4)C3=O)CC2)cc1C (stereo not drawn),"inconclusive [inhibitor, single point]",
Cc1ccc(C(NC(=O)C2CCN(CCOc3ccccc3)CC2)c2ccccn2)cc1 (stereo not drawn),"inconclusive [inhibitor, single point]",
Cc1c2c(nc3c(C(=O)NC4CCCC4)cnn13)CCCC2,inactive,
Cc1ccc(O)c(C(CC(=O)N2CCCC2)c2ccccc2)c1 (stereo not drawn),"inconclusive [inhibitor, partial curve]",
CCN(Cc1ccccc1)S(=O)(=O)c1cn(C)cn1,inactive,
CCc1nc(N)c(C#N)c(-c2ccc(OC)c(OC)c2)c1C,,inconclusive: -30.1% [inhibitor]
CCCN(C(=O)CSCc1c(C)noc1C)c1c(N)n(Cc2ccccc2)c(=O)[nH]c1=O,inactive,
O=S(=O)(c1ccc2nc(SCc3cccc(Cl)c3)[nH]c2c1)N1CCOCC1,"inconclusive [inhibitor, single point]",
C=CCNCCCCOc1ccc(OCC)cc1,"inconclusive [inhibitor, full curve, poor fit]",
Cc1cccc(NC(=O)CNC(=O)c2ccc3nc[nH]c3c2)c1C,inactive,
Cc1ccc(NC2=NCC(=O)N2C2CCCC2)c(C)c1,"inconclusive [inhibitor, single point]",
O=C(CN1C(=O)COc2ccc(S(=O)(=O)NC3CCCC3)cc21)NCc1ccc(Cl)cc1,"inconclusive [inhibitor, single point]",
c1cncc(-c2nc(NCc3cccs3)c3ccccc3n2)c1,"inconclusive [inhibitor, single point]",
CCC(Cc1ccccc1)NS(=O)(=O)c1c(C)nc2scc(C)n2c1=O (stereo not drawn),inactive,
C(=N\N=C\c1ccccc1)/c1ccccc1,"inconclusive [inhibitor, partial curve, poor fit]",
COc1ccc(C2=NN(C(=O)c3ccccc3)C(c3ccc(OC)c(OC)c3)C2)cc1OC (stereo not drawn),inactive,
O=C(O)c1ccc(/C=N\Nc2ccc(S(=O)(=O)N3CCOCC3)cc2[N+](=O)[O-])cc1,inactive,
CC1CCCCC1NCC#CCOc1ccc(Cl)cc1 (stereo not drawn),"inconclusive [inhibitor, single point]",
Cc1cc(C)c(C#N)c(SCC(=O)Nc2ccc3c(c2)OCO3)n1,inactive,
CCN(CC)c1ccc(C(=O)N/N=C(\C)c2cccnc2)cc1,inactive,
N#C/C(=C\C=C\c1ccccc1)C(=O)NCc1ccco1,"inconclusive [inhibitor, single point]",
CC(C)C[C@@H](COCc1ccc(C(F)(F)F)cc1)N1CCN(C(=O)c2ccc(C(F)(F)F)cc2)CCC1=O,"inconclusive [inhibitor, single point]",
C=CCN1C(=O)/C(=C/c2ccc(O)cc2)S/C1=N/c1nccs1,"inconclusive [inhibitor, single point]",

Compound,Potency,"activity change, negative = growth inhibition"
Cc1cccc(NC(=O)Cn2nnc(C(=O)NCc3cccs3)c2N)c1C,"inconclusive [inhibitor, single point]",
CC1(C(=O)Nc2ccc3c(c2)OCO3)CCN1Cc1ccccc1OC(F)F (stereo not drawn),"inconclusive [inhibitor, single point]",
O=C(CN1CCCC1)Nc1ccc(Cl)cc1C(F)(F)F,"inconclusive [inhibitor, single point]",
CCOc1ccc(OCC)c(-c2c(=O)n(OCc3ccccc3Br)c3ccccc3[n+]2[O-])c1,active: 8.91 µM,
CO/N=C/c1ccc(N2CCN(C(=O)c3ccc(C)cc3)CC2)c([N+](=O)[O-])c1,active: 14.6 µM,
Cc1nc(NC(=O)c2ccc(F)cc2)sc1C(=O)Nc1ccc2c(c1)CCC2,"inconclusive [inhibitor, single point]",
NC(=O)c1nsc(C(=O)N(Cc2ccco2)C(C(=O)NC2CCCC2)c2ccc(O)cc2)c1N (stereo not drawn),"inconclusive [inhibitor, single point]",
O=C(NCCC1=CCCCC1)c1ccc(Cl)c(S(=O)(=O)N2CCCCC2)c1,active: 23.1 µM,
N#CCCNCC1(c2ccccc2)CCCC1,inactive,
COc1ccc(C(=O)N2CCN(c3ccccn3)CC2)cc1[N+](=O)[O-],"inconclusive [inhibitor, partial curve]",
Cc1c(C(=O)N2CCC(C)CC2)c(S(=O)(=O)N(Cc2ccccc2)C(C)(C)C)c(C)n1C,"inconclusive [inhibitor, single point]",
CN=C1SC(CC(=O)Nc2ccc(F)cc2F)C(=O)N1/N=C/c1ccc(OC(F)F)c(OC)c1 (stereo not drawn),"inconclusive [inhibitor, single point]",
O=C(COC(=O)CCS(=O)(=O)c1ccccc1)Nc1ccc(N2CCCCC2)cc1,inactive,
Cc1ccc(-c2nnc(N3CCN(C(=O)CN4CCOCC4)CC3)c3ccccc23)cc1,active: 16.4 µM,
CCCS(=O)(=O)N1CCCC(C(=O)NCCCN2CCN(c3ccc(F)cc3)CC2)C1 (stereo not drawn),"inconclusive [inhibitor, partial curve, poor fit]",
C/C(=N\N1C(=O)c2ccccc2NC1c1ccccc1)c1ccccc1O (stereo not drawn),active: 7.31 µM,
Cc1cc(NC(=O)CSc2nc3ccsc3c(=O)n2CCCC(=O)NCCc2ccccc2)no1,"inconclusive [inhibitor, single point]",
COc1ccc(C2=NN(C(=O)CSc3nc4ccccc4s3)C(c3ccc(F)cc3)C2)cc1 (stereo not drawn),"inconclusive [inhibitor, single point]",
CC(C)(C)NC(=O)COC(=O)/C=C/c1ccc(F)cc1,"inconclusive [inhibitor, single point]",
O=C(Nc1ccn(Cc2c(F)c(F)cc(F)c2F)n1)c1ccc(COc2cc(Cl)ccc2Cl)o1,"inconclusive [inhibitor, single point]",
Cc1cc(-c2nn(-c3ccccc3F)cc2CN2CCN(c3ccncc3)CC2)c(C)s1,"inconclusive [inhibitor, single point]",
Cc1cccc(NC(=S)N2CCN(S(=O)(=O)c3cccc(F)c3)CC2)c1,inactive,
